# The supplement of paper PMC8728848
# The list shows a part of the results.
# B1: DC-ASGPR-short (Homo sapiens) (protein)
# chain: MTRTYENFQYLENKVKVQGFKNGPLPLQSLLQRLRSGPCHLLLSLGLGLLLLVIICVVGFQNSKFQRDLVTLRTDFSNFTSNTVAEIQALTSQGSSLEETIASLKAEVEGFKQERQAVHSEMLLRVQQLVQDLKKLTCQVATLNNNASTEGTCCPVNWVEHQDSCYWFSHSGMSWAEAEKYCQLKNAHLVVINSREEQNFVQKYLGSAYTWMGLSDPEGAWKWVDGTDYATGFQNWKPGQPDDWQGHGLGGGEDCAHFHPDGRWNDDVCQRPYHWVCEAGLGQTSQESH
# Key:
# Assay in all cases: glycan array binding signal (z-score within array); higher = stronger binding
# Details in all cases: glycan notation: IUPAC condensed, linker removed
# [1] = target: Fuc(a1-2)[GalNAc(b1-3)]Gal
# In short: (§1)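 The binding signal is a Z-score computed within each array and averaged over linkers. Arrays of the same protein sequence at different concentrations or buffers were also averaged together. Data originate from 3228 arrays in the Consortium for Functional Glycomics database, kept only where the protein sequence was available.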
# [2] = target: Fuc(a1-3)GlcNAc
# In short: as §1
# [3] = target: Fuc(a1-3)[Gal(b1-4)]Glc6S
# In short: as §1
# [4] = target: Fuc(a1-3)[Gal(b1-4)]GlcNAc
# In short: as §1
# [5] = target: Fuc(a1-3)[Gal(b1-4)]GlcNAc(b1-2)Man
# In short: as §1
# [6] = target: Fuc(a1-3)[Gal(b1-4)]GlcNAc(b1-2)Man(a1-3)[Fuc(a1-3)[Gal(b1-4)]GlcNAc(b1-2)Man(a1-6)]Man(b1-4)GlcNAc(b1-4)GlcNAc
# In short: as §1
# [7] = target: Fuc(a1-3)[Gal(b1-4)]GlcNAc(b1-2)Man(a1-3)[Fuc(a1-3)[Gal(b1-4)]GlcNAc(b1-2)Man(a1-6)]Man(b1-4)GlcNAc(b1-4)[Fuc(a1-6)]GlcNAc
# In short: as §1
# [8] = target: Fuc(a1-3)[Gal(b1-4)]GlcNAc(b1-3)Gal(b1-3)[Fuc(a1-4)]GlcNAc
# In short: as §1
# [9] = target: Fuc(a1-3)[Gal(b1-4)]GlcNAc(b1-3)Gal(b1-4)[Fuc(a1-3)]GlcNAc
# In short: as §1
# [10] = target: Fuc(a1-3)[Gal(b1-4)]GlcNAc(b1-3)Gal(b1-4)[Fuc(a1-3)]GlcNAc(b1-3)Gal(b1-4)[Fuc(a1-3)]GlcNAc
# In short: as §1
# [11] = target: Fuc(a1-3)[Gal(b1-4)]GlcNAc(b1-3)GalNAc
# In short: as §1
# [12] = target: Fuc(a1-3)[Gal(b1-4)]GlcNAc(b1-6)GalNAc
# In short: as §1
# [13] = target: Fuc(a1-3)[Gal(b1-4)]GlcNAc(b1-6)[Gal(b1-3)GlcNAc(b1-3)]Gal(b1-4)Glc
# In short: as §1
# [14] = target: Fuc(a1-3)[Gal(b1-4)]GlcNAc6S
# In short: as §1
# [15] = target: Fuc(a1-3)[Gal3S(b1-4)]Glc
# In short: as §1
# [16] = target: Fuc(a1-3)[Gal3S(b1-4)]GlcNAc
# In short: as §1
# [17] = target: Fuc(a1-3)[Gal3S(b1-4)]GlcNAc6S
# In short: as §1
# [18] = target: Fuc(a1-3)[GalNAc(b1-4)]GlcNAc
# In short: as §1
# [19] = target: Fuc(a1-3)[GalNAc(b1-4)]GlcNAc6S
# In short: as §1
# [20] = target: Fuc(a1-4)GlcNAc
# In short: as §1
# [21] = target: Fuc(b1-3)GlcNAc
# In short: as §1
# [22] = target: Gal(a1-2)Gal
# In short: as §1
# [23] = target: Gal(a1-3)Gal
# In short: as §1
# [24] = target: Gal(a1-3)Gal(b1-3)GlcNAc
# In short: as §1
# [25] = target: Gal(a1-3)Gal(b1-3)GlcNAc(b1-2)Man
# In short: as §1
# [26] = target: Gal(a1-3)Gal(b1-3)GlcNAc(b1-2)Man(a1-3)[Gal(a1-3)Gal(b1-3)GlcNAc(b1-2)Man(a1-6)]Man(b1-4)GlcNAc(b1-4)GlcNAc
# In short: as §1
# [27] = target: Gal(a1-3)Gal(b1-3)GlcNAc(b1-3)GalNAc
# In short: as §1
# [28] = target: Gal(a1-3)Gal(b1-3)GlcNAc(b1-6)GalNAc
# In short: as §1
# [29] = target: Gal(a1-3)Gal(b1-3)[Fuc(a1-4)]GlcNAc(b1-2)Man(a1-3)[Gal(a1-3)Gal(b1-3)[Fuc(a1-4)]GlcNAc(b1-2)Man(a1-6)]Man(b1-4)GlcNAc(b1-4)GlcNAc
# In short: as §1
# [30] = target: Gal(a1-3)Gal(b1-4)Glc
# In short: as §1
binder,measurement,setting,value
B1,glycan array binding signal (z-score),[1],4.03
same,glycan array binding signal (z-score),[2],0.514
same,glycan array binding signal (z-score),[3],-0.272
same,glycan array binding signal (z-score),[4],-0.28
same,glycan array binding signal (z-score),[5],-0.274
same,glycan array binding signal (z-score),[6],-0.275
same,glycan array binding signal (z-score),[7],-0.267
same,glycan array binding signal (z-score),[8],-0.284
same,glycan array binding signal (z-score),[9],-0.286
same,glycan array binding signal (z-score),[10],-0.26
same,glycan array binding signal (z-score),[11],-0.259
same,glycan array binding signal (z-score),[12],0.599
same,glycan array binding signal (z-score),[13],-0.248
same,glycan array binding signal (z-score),[14],-0.148
same,glycan array binding signal (z-score),[15],-0.266
same,glycan array binding signal (z-score),[16],-0.261
same,glycan array binding signal (z-score),[17],-0.284
same,glycan array binding signal (z-score),[18],3.04
same,glycan array binding signal (z-score),[19],1.81
same,glycan array binding signal (z-score),[20],-0.228
same,glycan array binding signal (z-score),[21],-0.273
same,glycan array binding signal (z-score),[22],-0.275
same,glycan array binding signal (z-score),[23],-0.251
same,glycan array binding signal (z-score),[24],-0.264
same,glycan array binding signal (z-score),[25],-0.269
same,glycan array binding signal (z-score),[26],-0.247
same,glycan array binding signal (z-score),[27],-0.248
same,glycan array binding signal (z-score),[28],2.47
same,glycan array binding signal (z-score),[29],-0.166
same,glycan array binding signal (z-score),[30],-0.271
